Experimental data published in PubChem BioAssay (Tox21).
Where “and” joins values, the source holds several entries; their conditions need not be identical. Identical values can stand only once. The inconclusive results got no clear call from the source; some entries with a clear call stand among them for comparison. For some assays here: Potencies of inconclusive entries are doubtful fits and often do not repeat. The source holds several records for some structures; these can differ, active in one and inactive in another. Calls of active or inactive are those of the source. Unless noted, the call rests on the fitted dose curve; in most records, active means well fitted curve in the direction sought with a large enough effect in the repeat runs; inconclusive means weak or mixed curves; inactive means no such curve, though single readings can be large; an effect the other way counts as inactive or inconclusive. *1 amine or outer side, *2 acyl side, *3 side chain or, on linkers, in order; H or OH if unused. Where a SMILES comes first, the peptide text is derived from it. Bridges are numbered along the chain shown (N, C = ends). Roman numbers before positions name the chains, in order. [ ]: non-standard residue; d: D form. Actinocin(9to1) = Cc1c2oc3c(C)ccc(C(=O)[*:1])c3nc-2c(C(=O)[*:2])c(N)c1=O; NMeV = CN[C@H](C(=O)O)C(C)C; Sar = CNCC(=O)O

Experiments:
[1] = biological target: Aryl hydrocarbon receptor (Homo sapiens) (UniProt P35869); assay: qHTS assay to identify small molecule that activate the aryl hydrocarbon receptor (AhR) signaling pathway (AID 743085); further: nearly all actives have a fitted effect of over 15% in size;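 on activation: HG2L7.5c1 human HepG2 liver cells with stably integrated DRE-driven firefly reporter; on the % scale 0 is the no-effect control and ±100 the full control effect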
In short: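 HepG2 cells (HG2L7.5c1) stably carrying a firefly luciferase reporter driven by 20 dioxin responsive elements were exposed to compound for 24 h at 37C after a 5 h settling period; luminescence rise (ONE-Glo) indicated activation.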

[2] = biological target: Peroxisome proliferator-activated receptor gamma (Homo sapiens) (UniProt P37231); assay: qHTS assay to identify small molecule agonists of the peroxisome proliferator-activated receptor gamma (PPARg) signaling pathway (AID 743094; active means well fitted activation curve with a large enough effect in the signal ratio in the repeat runs, not every such curve was filed as active; inconclusive means weak or mixed curves, or effect the other way; inactive means no such curve, though single readings can be large or run the other way; the % refers to the signal ratio; on activation: on the % scale 0 is the no-effect control and ±100 the full control effect); conditions: HEK293H PPARg-UAS-bla, beta-lactamase FRET ratio, 17 h; activation: at 57 µM (top of the series) unless noted
In short: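 Stably transfected HEK293H cells (GeneBLAzer PPARg UAS-bla) were incubated with test substances for 17 h at 37C after a 5 h pre-incubation; beta-lactamase activity was then detected by FRET substrate fluorescence.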

[3] = biological target: Peroxisome proliferator-activated receptor gamma (Homo sapiens) (UniProt P37231); assay: qHTS assay to identify small molecule antagonists of the peroxisome proliferator-activated receptor gamma (PPARg) signaling pathway (AID 743191; calls by dose curve; further: nearly all actives have a fitted effect of over 30% in size; on ratio activity, negative = inhibition: on the % scale 0 is the no-effect control and ±100 the full control effect); conditions: HEK293H PPARg-UAS-bla, beta-lactamase ratio, antagonist, 17 h; ratio activity, negative = inhibition: at 62.6 µM (top of the series) unless noted
In short: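 GeneBLAzer PPARg UAS-bla HEK293H cells, 5 h post-plating, exposed to compounds 17 h at 37C. LiveBLAzer B/G FRET substrate added for 1 h at room temperature; beta-lactamase reporter read by fluorescence intensity.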

[4] = qHTS assay to identify small molecule that activate the aryl hydrocarbon receptor (AhR) signaling pathway - cell viability counter screen (AID 743086); further: nearly all actives have a fitted effect of over 45% in size
In short: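 HepG2-AhR-luc (HG2L7.5c1) cells, 4000/well, treated 24 h at 37 C with compound; viability measured as CellTiter-Fluor fluorescence after 30 min in the same wells as the luciferase read.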

[5] = qHTS assay to identify small molecule antagonists of the peroxisome proliferator-activated receptor gamma (PPARg) signaling pathway - cell viability counter screen (AID 743194); conditions: PPARg-bla HEK293H viability, CellTiter-Glo luminescence, 17 h, co-treated with 50 nM rosiglitazone; activity change, negative = cytotoxicity: at 62.6 µM (top of the series) unless noted; further: nearly all actives have a fitted effect of over 55% in size
In short: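 Cytotoxicity counter screen in PPARg-bla HEK293H cells, same wells as reporter assay. Compounds plus 50 nM rosiglitazone (final) for 17 h at 37 C, then viability read by CellTiter-Glo luminescence.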

[6] = qHTS assay for small molecule agonists of the antioxidant response element (ARE) signaling pathway (AID 743202; active means well fitted activation curve with a large enough effect in the signal ratio in the repeat runs, not every such curve was filed as active; inconclusive means weak or mixed curves, or effect the other way; inactive means no such curve, though single readings can be large or run the other way; the % refers to the signal ratio); conditions: HepG2 ARE-bla reporter, beta-lactamase FRET, 16 h; activation: at 73.3 µM (top of the series) unless noted
In short: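 ARE-bla HepG2 cells (beta-lactamase reporter under the antioxidant response element), plated 5 hours, then exposed to compounds 16 hours at 37 C. LiveBLAzer B/G FRET substrate added for 2 hours at room temperature; fluorescence intensity read.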

[7] = qHTS assay for small molecule activators of the heat shock response signaling pathway (AID 743210; active means well fitted activation curve with a large enough effect in the signal ratio in the repeat runs, with a control signal flat, not every such curve was filed as active; inconclusive means weak or mixed curves; the % refers to the signal ratio; on activation: on the % scale 0 is the no-effect control and ±100 the full control effect); conditions: HeLa HSE-bla reporter, beta-lactamase ratio, 5 h; activation: at 62.6 µM (top of the series) unless noted
In short: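 HSE-bla HeLa cells (beta-lactamase reporter under heat shock response elements), plated overnight, then exposed to compounds 5 h at 37 C; LiveBLAzer B/G FRET substrate added, 2.5 h at room temperature, fluorescence intensity read.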

[8] = qHTS assay to identify small molecule agonists of the peroxisome proliferator-activated receptor delta (PPARd) signaling pathway - cell viability counter screen (AID 743211); conditions: PPARd-bla HEK293H viability, CellTiter-Glo luminescence, 17 h; activity change, negative = cytotoxicity: at 62.6 µM (top of the series) unless noted; further: nearly all actives have a fitted effect of over 55% in size
In short: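 PPARd-bla HEK293H cells (UAS-beta-lactamase reporter) were treated with compounds for 17 h at 37 C. Viability was then read in the same wells by CellTiter-Glo luminescence after 30 min at room temperature.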

[9] = qHTS assay to identify small molecule antagonists of the peroxisome proliferator-activated receptor delta (PPARd) signaling pathway - cell viability counter screen (AID 743213); conditions: PPARd-bla HEK293H viability, CellTiter-Glo luminescence, 17 h; viability change, negative = cytotoxic: at 62 µM (top of the series) unless noted; further: nearly all actives have a fitted effect of over 50% in size
In short: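 Agonist-stimulated (L165041, 300 nM final) HEK293H PPARd UAS-bla cells are exposed to compounds for 17 h at 37 C, and ATP-based luminescence (CellTiter-Glo) from the same wells reports cytotoxicity.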

[10] = biological target: Peroxisome proliferator-activated receptor delta (Homo sapiens) (UniProt Q03181); assay: qHTS assay to identify small molecule antagonists of the peroxisome proliferator-activated receptor delta (PPARd) signaling pathway (AID 743215; active means well fitted inhibition curve with a large enough effect in the signal ratio in the repeat runs, not every such curve was filed as active; inconclusive means weak or mixed curves, or effect the other way; inactive means no such curve, though single readings can be large or run the other way; the % refers to the signal ratio); conditions: HEK293H PPARd-UAS-bla, beta-lactamase FRET ratio, antagonist, 17 h; ratio activity, negative = inhibition: at 62 µM (top of the series) unless noted
In short: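 Antagonist-mode beta-lactamase reporter screen: HEK293H cells with UAS-bla under PPARd control, stimulated by 300 nM L165041 (final) alongside test compound for 17 h at 37 C, then FRET fluorescence after 2 h substrate incubation.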

[11] = qHTS assay to identify small molecule agonists of the vitamin D receptor (VDR) signaling pathway - cell viability counter screen (AID 743224); conditions: VDR-bla HEK293T viability, CellTiter-Glo luminescence, 16 h; activity change, negative = cytotoxicity: at 62.6 µM (top of the series); further: nearly all actives have a fitted effect of over 50% in size
In short: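 VDR-bla cell line, quantitative HTS format; 16 h compound incubation (37C, 5% CO2); ATP-based CellTiter-Glo luminescence measured in the reporter assay wells.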

[12] = qHTS assay for small molecule agonists of the antioxidant response element (ARE) signaling pathway - cell viability counter screen (AID 743203; calls by dose curve; further: nearly all actives have a fitted effect of over 55% in size); conditions: ARE-bla HepG2 viability, CellTiter-Glo luminescence, 16 h; viability change, negative = cytotoxic: at 73.3 µM (top of the series)
In short: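 Cells (ARE-bla HepG2, 2,000/well) receive DMSO-dissolved compounds after a 5 hrs rest. Plates incubate 16 hrs at 37C/5% CO2. CellTiter-Glo luminescence is then recorded after 30 min at room temperature.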

[13] = qHTS assay for small molecule activators of the heat shock response signaling pathway - cell viability counter screen (AID 743209); conditions: HSE-bla HeLa viability, CellTiter-Glo luminescence, 5 h; activity change, negative = cytotoxicity: at 62.6 µM (top of the series) unless noted; further: nearly all actives have a fitted effect of over 50% in size
In short: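 Quantitative HTS format, Tox21 10K library. HeLa cells carrying an HSE-driven beta-lactamase reporter were treated 5 h at 37 C, then assessed for viability by CellTiter-Glo luminescence.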

[14] = qHTS assay to identify small molecule antagonists of the farnesoid-X-receptor (FXR) signaling pathway - cell viability counter screen (AID 743221; active means well fitted cell-killing curve with a large enough effect in the repeat runs, not every such curve was filed as active; inconclusive means weak or mixed curves, or effect the other way; inactive means no such curve, though single readings can be large or run the other way; further: nearly all actives have a fitted effect of over 50% in size); conditions: FXR-bla HEK293T viability, CellTiter-Glo luminescence, 16 h; activity change, negative = cytotoxicity: at 62.6 µM (top of the series) unless noted
In short: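 FXR-UAS-bla HEK 293T cells were treated with test compounds plus chenodeoxycholic acid (50 uM final) for 16 h at 37 C. Cell viability in the same wells was then read as CellTiter-Glo luminescence after 30 min at room temperature.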

[15] = biological target: Vitamin D3 receptor (Homo sapiens) (UniProt P11473); assay: qHTS assay to identify small molecule agonists of the vitamin D receptor (VDR) signaling pathway (AID 743222; calls by dose curve); conditions: HEK293T VDR-UAS-bla, beta-lactamase FRET ratio, 16 h; activation: at 63.5 µM (top of the series) unless noted
In short: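 Agonist activity measured in VDR-bla reporter cells. Exposure 16 h, 37C, 5% CO2; detection by B/G FRET substrate, 2 h RT.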

[16] = qHTS assay to identify small molecule agonists of the farnesoid-X-receptor (FXR) signaling pathway - cell viability counter screen (AID 743218); conditions: FXR-bla HEK293T viability, CellTiter-Glo luminescence, 16 h; viability change, negative = cytotoxic: at 62.6 µM (top of the series) unless noted; further: nearly all actives have a fitted effect of over 45% in size
In short: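 In GeneBLAzer FXR-UAS-bla HEK 293T cells, compounds act for 16 h at 37 C. Cell viability is then scored in the reporter wells by CellTiter-Glo, 30 min at RT, luminescence.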
Potency means the concentration at half of the fitted maximal effect; tags describe the fitted curve by direction and shape or compound fluorescence and quenching.

UniProt P37231, sequence (P37231 whole entry, looked up): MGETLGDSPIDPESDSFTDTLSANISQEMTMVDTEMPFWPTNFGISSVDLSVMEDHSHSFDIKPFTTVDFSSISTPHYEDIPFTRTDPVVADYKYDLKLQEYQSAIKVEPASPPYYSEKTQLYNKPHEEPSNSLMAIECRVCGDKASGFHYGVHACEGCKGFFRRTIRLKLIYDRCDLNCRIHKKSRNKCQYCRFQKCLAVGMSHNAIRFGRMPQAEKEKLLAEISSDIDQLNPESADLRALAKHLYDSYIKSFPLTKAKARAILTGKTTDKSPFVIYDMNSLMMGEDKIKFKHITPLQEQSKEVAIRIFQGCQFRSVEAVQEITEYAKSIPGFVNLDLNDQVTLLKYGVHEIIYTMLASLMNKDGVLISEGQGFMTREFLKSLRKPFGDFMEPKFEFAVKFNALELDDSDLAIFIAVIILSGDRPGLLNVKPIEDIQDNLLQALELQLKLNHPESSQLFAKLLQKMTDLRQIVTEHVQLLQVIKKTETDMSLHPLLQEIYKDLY
UniProt Q03181, sequence (Q03181 whole entry, looked up): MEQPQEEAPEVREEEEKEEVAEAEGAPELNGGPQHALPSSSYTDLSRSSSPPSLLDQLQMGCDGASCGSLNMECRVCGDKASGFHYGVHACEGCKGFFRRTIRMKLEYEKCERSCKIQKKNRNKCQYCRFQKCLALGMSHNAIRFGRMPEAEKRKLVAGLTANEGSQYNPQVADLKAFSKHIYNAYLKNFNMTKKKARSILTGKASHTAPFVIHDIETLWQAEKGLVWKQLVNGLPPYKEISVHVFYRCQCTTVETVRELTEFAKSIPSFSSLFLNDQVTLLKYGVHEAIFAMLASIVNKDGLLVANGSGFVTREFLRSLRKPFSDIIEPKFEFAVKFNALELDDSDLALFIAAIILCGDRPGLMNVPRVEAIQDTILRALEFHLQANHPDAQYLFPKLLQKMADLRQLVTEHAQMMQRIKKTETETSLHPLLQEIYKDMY
UniProt P35869, sequence (P35869 whole entry, looked up): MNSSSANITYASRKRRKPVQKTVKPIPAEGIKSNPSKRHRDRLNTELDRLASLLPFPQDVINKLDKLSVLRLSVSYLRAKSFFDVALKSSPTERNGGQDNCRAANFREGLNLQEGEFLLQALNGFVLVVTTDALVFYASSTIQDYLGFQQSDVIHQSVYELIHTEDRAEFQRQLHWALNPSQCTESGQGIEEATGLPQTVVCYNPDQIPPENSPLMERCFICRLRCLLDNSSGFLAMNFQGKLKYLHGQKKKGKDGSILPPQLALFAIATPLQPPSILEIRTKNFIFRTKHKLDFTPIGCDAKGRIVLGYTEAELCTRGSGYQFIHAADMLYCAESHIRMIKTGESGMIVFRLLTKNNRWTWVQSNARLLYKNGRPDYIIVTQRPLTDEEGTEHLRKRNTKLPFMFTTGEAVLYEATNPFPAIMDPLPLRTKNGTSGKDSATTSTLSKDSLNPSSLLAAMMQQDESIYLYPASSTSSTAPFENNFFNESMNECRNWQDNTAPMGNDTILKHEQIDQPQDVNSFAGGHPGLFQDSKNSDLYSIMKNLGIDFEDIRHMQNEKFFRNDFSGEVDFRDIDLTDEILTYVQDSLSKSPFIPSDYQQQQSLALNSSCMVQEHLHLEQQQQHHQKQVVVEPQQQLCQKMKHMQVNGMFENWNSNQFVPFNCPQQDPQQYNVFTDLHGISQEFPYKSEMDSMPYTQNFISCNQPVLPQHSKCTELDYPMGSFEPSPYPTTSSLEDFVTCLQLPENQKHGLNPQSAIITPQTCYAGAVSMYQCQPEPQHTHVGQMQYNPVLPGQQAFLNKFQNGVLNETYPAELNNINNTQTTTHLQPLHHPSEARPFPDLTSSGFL
UniProt P11473, sequence (P11473 whole entry, looked up): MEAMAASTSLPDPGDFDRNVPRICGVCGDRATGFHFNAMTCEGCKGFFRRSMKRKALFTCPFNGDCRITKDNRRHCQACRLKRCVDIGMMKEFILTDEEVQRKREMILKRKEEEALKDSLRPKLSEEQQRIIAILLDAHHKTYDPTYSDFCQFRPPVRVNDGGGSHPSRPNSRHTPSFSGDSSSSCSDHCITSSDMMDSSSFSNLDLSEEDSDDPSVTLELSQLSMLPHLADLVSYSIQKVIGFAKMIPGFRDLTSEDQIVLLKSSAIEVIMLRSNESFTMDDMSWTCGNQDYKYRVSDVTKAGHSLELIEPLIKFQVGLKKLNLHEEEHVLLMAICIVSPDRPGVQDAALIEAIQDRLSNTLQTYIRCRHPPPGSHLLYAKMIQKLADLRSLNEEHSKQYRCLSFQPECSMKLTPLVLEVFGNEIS

Q: With `CCCCCCCC/C=C\CCCCCCCCCCCC(=O)O` as the compound, how does the Potency [1] read?
A: inconclusive: 62.1 µM [activator, partial curve, poor fit]

Q: And the Potency [2]?
A: inactive

Q: What about the Potency [3] of the same compound?
A: inconclusive: 22.2 µM [falling, partial curve, poor fit]

Q: What does the source list for `Nc1ccc(N=Nc2ccccc2)c(N)c1`?
A: Potency [1]: active: 30 µM; Potency [4]: active: 26.7 µM; Potency [3]: active: 42.7 µM; Potency [5]: inconclusive: 4.79 µM [cytotoxic, full curve, poor fit]; Potency [6]: inconclusive: 30 µM; Potency [7]: inconclusive: 9.56 µM [falling, partial curve, poor fit]; Potency [8]: inconclusive: 53.8 µM [cytotoxic, single point]; Potency [9]: inconclusive: 53.8 µM [cytotoxic, single point]; Potency [10]: inconclusive: 33.9 µM [inhibitor, partial curve, poor fit]; Potency [11]: inconclusive: 53.8 µM [cytotoxic]

Q: With `Cc1c2oc3c(C)ccc(C(=O)N[C@@H]4C(=O)N[C@H](C(C)C)C(=O)N5CCC[C@H]5C(=O)N(C)CC(=O)N(C)[C@@H](C(C)C)C(=O)O[C@@H]4C)c3nc-2c(C(=O)N[C@@H]2C(=O)N[C@H](C(C)C)C(=O)N3CCC[C@H]3C(=O)N(C)CC(=O)N(C)[C@@H](C(C)C)C(=O)O[C@@H]2C)c(N)c1=O` (I: T[dV]P[Sar][NMeV] / II: T[dV]P[Sar][NMeV]; ester I:1-I:C, II:1-II:C; linker I:N-II:N via Actinocin(9to1)) as the compound, how does the Potency [1] read?
A: inconclusive: 0.106 µM [activator, full curve, poor fit]

Q: And the Potency [4]?
A: active: 18.8 nM and active: 14.9 µM

Q: What about the Potency [2] of the same compound?
A: inconclusive: 0.0301 µM [inhibitor, full curve]

Q: And the activation [2]?
A: inconclusive: -23.5%

Q: What about the Potency [5] of the same compound?
A: inconclusive: 26.8 µM [cytotoxic, partial curve, poor fit] and inconclusive: 11.9 nM [cytotoxic, full curve]

Q: What about the Potency [12] of the same compound?
A: inconclusive: 33.4 µM [cytotoxic, single point] and inconclusive: 3.8 nM [cytotoxic, full curve, poor fit]

Q: And the Potency [13]?
A: inconclusive: 4.2 nM [cytotoxic, full curve] and inconclusive: 29.8 nM [cytotoxic, full curve]

Q: And the Potency [7]?
A: inactive

Q: What about the Potency [10] of the same compound?
A: active: 1.7 nM and active: 11.9 nM

Q: What about the Potency [14] of the same compound?
A: inconclusive: 26.8 µM [falling, single point]

Q: What about the Potency [15] of the same compound?
A: inconclusive: 10.7 µM [rising, partial curve, poor fit]

Q: For `S=c1nc[nH]c2nc[nH]c12`, which Potency [1] is on record?
A: inactive and active: 23.7 µM

Q: What about the activation [2] of the same compound?
A: inconclusive: -13.4% and inconclusive: -12.8%

Q: What about the ratio activity, negative = inhibition [3] of the same compound?
A: inconclusive: -30.5% and inconclusive: -35.2%

Q: What about the Potency [5] of the same compound?
A: inconclusive: 3.79 µM [cytotoxic, full curve, poor fit] and inconclusive: 2.11 µM [cytotoxic, full curve]

Q: What about the Potency [6] of the same compound?
A: active: 4.74 µM and active: 7.5 µM

Q: What about the Potency [12] of the same compound?
A: inconclusive: 3.35 µM [cytotoxic, partial curve]

Q: What about the Potency [8] of the same compound?
A: active: 23.9 µM and inconclusive: 13.3 µM [cytotoxic, full curve]

Q: And the Potency [9]?
A: inconclusive: 26.9 µM [cytotoxic, partial curve, poor fit] and inconclusive: 5.96 µM [cytotoxic, full curve]

Q: What about the ratio activity, negative = inhibition [10] of the same compound?
A: inconclusive: -35.1%

Q: And the Potency [16]?
A: inconclusive: 9.44 µM [cytotoxic, full curve, poor fit]

Q: What about the Potency [14] of the same compound?
A: inconclusive: 33.8 µM [falling, partial curve] and inconclusive: 13.3 µM [falling, partial curve]
